Out of some 150,000 compounds screened, about 540 (0.36%) showed an effect of 50% or more. The list shows a part of the results.

Data on 55 compounds can be found in ChEMBL document CHEMBL4888484, “Replenishing the malaria drug discovery pipeline: Screening and hit evaluation of the MMV Hit Generation Library 1 (HGL1) against asexual blood stage Plasmodium falciparum ,using a nano luciferase reporter read-out” (2022).

The test system of this experiment is Plasmodium falciparum. The experiment in a line: Primary screen in NF54 nanoGlo assay, in single point, at 2uM, 72h; a lower Z score goes with more inhibition. Format: functional, Erythrocyte. Conditions: timepoint 72 hour.
Take `Cn1ncc2[nH]c(C(C)(C)CN3CCOCC3)nc21`: the “% Inhibition” value is given as -1% and the Z score was 0.07.
On to `CS(=O)(=O)[C@H]1CCN(C(=O)c2ccc(F)c3occc23)C1`, for which the “% Inhibition” value is listed as -3% and the Z score worked out at 0.46.
As for `CC(C)N1CCC(N2CCN(Cc3cc4ccccc4[nH]3)C[C@@H]2CCO)CC1`, the “% Inhibition” value stood at 1% and the Z score was -0.13.
For `CO[C@@H](C)CNC(=O)Cc1c2c(n(CCc3ccccc3)c1C)CCCC2=O`, in that order: -7% and 0.89.
For `C[C@H](NCC(C)(C)c1cccc(F)c1)C1(S(C)(=O)=O)CC1`, the “% Inhibition” value was determined as 1% and the Z score is on record as -0.2.
For `CC(=O)Nc1snnc1C(=O)NC1CCCCC1`, in that order: 27% and -3.11.
`C[C@H](NC(=O)c1ncccc1O)C1=CCCCC1`: the “% Inhibition” value is -12% and the Z score was 1.14.
For `CCOc1ccc2nc(-n3nc(C)c4c3NC(=O)C[C@@H]4c3ccc(OC)c(OC)c3)sc2c1`, in that order: -9% and 1.4.
For `CC(=O)Nc1cccc(OS(=O)(=O)N(C)C)c1`, in that order: -3% and 0.53.
For `O=C1CCCCN1CCCC(=O)N1CCC(F)CC1`, the “% Inhibition” value is reported as 2% and the Z score was -0.35.
On to `CN=C(N)Nc1ccc(OC(F)(F)F)cc1`, for which the “% Inhibition” value is -5% and the Z score is given as 0.65.
On to `O=S(=O)(c1ccc(F)c(Cl)c1)N1CC(Nc2cccnn2)C1`, for which the “% Inhibition” value was -13% and the Z score turned out to be 1.53.
For `COCCC1(NC(=O)NC2CCCCC2)CCN(S(C)(=O)=O)CC1`, in that order: 3% and -0.41.
For the compound `O=C(c1ccc(Cl)s1)N1CC(Cn2cncn2)C1`, the “% Inhibition” value was -24% and the Z score is 3.09.
For `O[C@@]1(CNCCC(c2ccccc2)c2ccccc2)CNCCOC1`, in that order: 12% and -1.7.
For `COc1ccc(-n2nc(C(=O)N3CCN(C)CC3)c(=O)n(Cc3cccc(C(F)(F)F)c3)c2=O)cc1OC`, in that order: -2% and 0.34.
On to `CC1(NCc2cc(Cl)cs2)COC1`, for which the “% Inhibition” value is on record as -1% and the Z score was 0.16.
Take `Cc1nc(CS(=O)(=O)[C@@H](C)C(=O)Nc2ccccc2)no1`: the “% Inhibition” value is -10% and the Z score was determined as 1.92.
On to `O=C(CCn1nc2ccccn2c1=O)Nc1c(O)cccc1F`, for which the “% Inhibition” value is given as -10% and the Z score stood at 1.53.
With `c1ccc(-c2nnc3n2C[C@@H](NCc2cccnc2)CC3)cc1`, the “% Inhibition” value was -16% and the Z score came to 1.44.
With `CO[C@H]1CCCN(C2CCN(c3ccccc3Cl)CC2)C1`, the “% Inhibition” value is reported as -2% and the Z score stood at 0.45.
For `COc1ccccc1N1CCN(C(=O)[C@@H]2CCN2S(=O)(=O)c2ccccc2)CC1`, the “% Inhibition” value was determined as 4% and the Z score is given as -0.58.
For `CCN1C[C@@H](C(=O)N2CCN(c3nc(C)cc(C)n3)CC2)CCC1=O`, in that order: -6% and 0.65.
For `COCCN1C[C@@H](CNC(=O)CC(=O)Nc2cccc(Cl)c2C)CC1=O`, in that order: 0% and -0.04.
For `COc1ccc(CNC(=O)[C@H]2CCCN(c3cnn(C)c(=O)c3)C2)cc1OC`, in that order: 27% and -3.02.
Turning to `Cc1ccc(NC(=O)N2CCCOCCNC(=O)[C@@H]3CCCC[C@@H]32)cc1C`, the “% Inhibition” value came to 6% and the Z score is on record as -0.7.
Take `CN1CCC(O)(C(=O)NCCc2c(Cl)cccc2Cl)CC1`: the “% Inhibition” value is listed as -19% and the Z score is recorded as 1.87.
Take `O=C(CCc1ccncc1)N1CCC(OC[C@H]2CCCO2)CC1`: the “% Inhibition” value is reported as -13% and the Z score is 1.92.
For `CC(C)(C)OC(=O)N[C@H]1CCc2nc(NC(=O)c3coc(CC4CC4)n3)sc2C1`, in that order: -6% and 0.92.
Consider `COc1cc(OC)cc(C(=O)N2CCc3nc(-c4cccc(F)c4)[nH]c(=O)c3C2)c1`, for which the “% Inhibition” value is reported as -15% and the Z score worked out at 1.46.
With `Cc1ccc(CCNC(=O)c2n[nH]c3c2CCC3)s1`, the “% Inhibition” value is recorded as -13% and the Z score was determined as 2.64.
Turning to `CC(C)NC(=O)c1cc(N[C@H](C(N)=O)C(C)C)ccn1`, the “% Inhibition” value is reported as -7% and the Z score was determined as 0.91.
For `NC(=O)Cn1cccc1-c1nc(-c2ccc3c(c2)OCO3)no1`, in that order: -10% and 1.24.
As to `O=C(Nc1cncc(F)c1)c1cccc(S(=O)(=O)NC[C@H]2CCOC2)c1`, the “% Inhibition” value is -5% and the Z score is recorded as 0.5.
Take `CCCN(Cc1nccn1C)C(=O)NCc1cncn1CC`: the “% Inhibition” value is -8% and the Z score stood at 1.12.
In the case of `COC[C@H]1CN(C(C)=O)CC12CCN(Cc1ccc3[nH]ccc3c1)CC2`, the “% Inhibition” value was 0% and the Z score was 0.01.
In the case of `CC(C)C(NC(=O)c1cnc(N(C)C)o1)C(C)C`, the “% Inhibition” value is listed as -15% and the Z score was found to be 1.95.
Regarding `CCCc1nc(CS(=O)(=O)Cc2ccc(Cl)s2)no1`, the “% Inhibition” value is on record as 2% and the Z score is on record as -0.21.
On to `O=C(c1ccco1)N1CCN(CCS(=O)(=O)c2ccc(Cl)cc2)CC1`, for which the “% Inhibition” value is given as -1% and the Z score is 0.07.
For `C[C@@H]1CN(Cc2ccccc2C(=O)O)C[C@]1(C)O`, in that order: -1% and 0.25.
In the case of `Cc1oc2ccccc2c1CCNC(=O)c1cnn(C2CCC2)c1`, the “% Inhibition” value was -1% and the Z score was found to be 0.12.
In the case of `COCCc1nc2c(c(N3CCN(c4ccccc4F)CC3)n1)CCOCC2`, the “% Inhibition” value is reported as -2% and the Z score turned out to be 0.19.
For `CC(C)(C)OC(=O)NCc1ccccn1`, in that order: -12% and 1.61.
For `CCc1ncc(C(=O)NCc2noc(C(N)=O)n2)cn1`, in that order: -9% and 1.72.
For `Cc1ccc(C(=O)N(C)[C@@H](c2ccccc2)c2ccccn2)c(=O)[nH]1`, in that order: -10% and 1.5.
Regarding `Cc1cc(CS(=O)(=O)N2CC(C3CC3)C2C2CC2)on1` (stereo not given), the “% Inhibition” value is on record as 3% and the Z score is listed as -0.52.
For `Cc1ncccc1CCNC(=O)[C@H]1OCC[C@H]1Cn1cccn1`, in that order: -5% and 0.75.
Consider `CC(C)CC(=O)N1CCC2(CC1)N[C@@H](Cc1ccccc1)C(=O)N2Cc1ccco1`, for which the “% Inhibition” value is recorded as -3% and the Z score is listed as 0.4.
Turning to `Cc1csc(NC(=O)c2cc(-c3cccc(Cl)c3)[nH]n2)n1`, the “% Inhibition” value is given as 4% and the Z score is -0.58.
Turning to `CCC[C@@H](CNc1nccc(NCC)n1)N(C)C`, the “% Inhibition” value is -15% and the Z score was 1.35.
For the compound `O=C(Nc1ccccc1)C1C2C(=O)N(Cc3ccncc3)C[C@]23C=C[C@H]1O3` (stereo not given in full), the “% Inhibition” value was -3% and the Z score came out at 0.47.
For `COCCOc1ccc(N)cc1Br`, in that order: -12% and 1.58.
For `CC(C)(C)n1cc(C(=O)Nc2nnc(-c3ccsc3)s2)cn1`, in that order: -2% and 0.35.
For `Cc1ncccc1C(=O)N1CC[C@H](CCOc2ccccc2F)C1`, in that order: -15% and 2.82.
For the compound `OCC#Cc1ccc(CNc2ccc3cn[nH]c3c2)s1`, the “% Inhibition” value is given as -10% and the Z score is reported as 1.85.
